Results taken from article PMC5969902, “Modulation of formin processivity by profilin and mechanical tension” (eLife, 2018).

Tests used:
Settings in all cases: both partners purified
[1] = target: T1, actin filament barbed ends elongating from unlabeled rabbit skeletal muscle actin (rabbit, UniProt P68135); assay: single-filament microfluidics with fluorescence microscopy; zero force, striped filaments anchored by spectrin-actin seeds (Figure 1B), formin from solution; 2 µM unlabeled actin, 4 µM profilin, 100 mM KCl
[2] = target: T1, actin filament barbed ends elongating …; assay: single-filament microfluidics with fluorescence microscopy; zero force, striped filaments anchored by spectrin-actin seeds (Figure 1B), formin from solution; 0.5 µM unlabeled actin, 4 µM profilin, 100 mM KCl
[3] = target: T1, actin filament barbed ends elongating …; assay: single-filament microfluidics with fluorescence microscopy; zero force, striped filaments anchored by spectrin-actin seeds (Figure 1B), formin from solution; 2 µM unlabeled actin, no profilin, 100 mM KCl

koff [1]: 0.00084 s⁻¹
koff [2]: 0.0003 s⁻¹
koff [3]: 0.0015 s⁻¹
B1: mDia2(SNAP-FH1-FH2-DAD-6xHis) (domain or fragment)
chain: not shown
notes: mouse formin mDia2, FH1-FH2-DAD, […] of […]; Formin homodimer; also called mDia2(FH1-FH2-DAD); Mouse mDia2(FH1-FH2-DAD); source: E. coli Rosetta 2 (DE3), purified; not shown: His6, C-terminal, kept
